# Test results from PubChem BioAssay (Tox21).
# Values joined by “and” are separate entries in the source; they are usually repeats but may differ in a detail not shown here. Equal values may be shown once. Inconclusive means that the source gave no clear call. Such entries were picked first, then a sample of the others. For part of these data: A potency beside an inconclusive call is a rough fit, not a confirmed value. Some compounds were tested as several samples or in several runs, with calls that do not always agree. Active and inactive are the calls of the source. Unless noted, calls come from the whole dose curve; as a rule, active = well fitted curve in the direction sought with a large enough effect in the repeat runs; inconclusive = weak or mixed curves; inactive = no such curve, though single readings can be large; an effect the other way counts as inactive or inconclusive.
# Columns and labels:
# [1] = biological target: Estrogen receptor (Homo sapiens) (UniProt P03372); assay: qHTS assay to identify small molecule antagonists of the estrogen receptor alpha (ER-alpha) signaling pathway using the BG1 cell line in the presence of 0.1 nM 17-beta-estradiol (AID 1259244); note: nearly all actives have a fitted effect of over 50% in size; note: potency is the fitted concentration of half-maximal effect
# Chain of UniProt P03372 (P03372 whole entry, looked up): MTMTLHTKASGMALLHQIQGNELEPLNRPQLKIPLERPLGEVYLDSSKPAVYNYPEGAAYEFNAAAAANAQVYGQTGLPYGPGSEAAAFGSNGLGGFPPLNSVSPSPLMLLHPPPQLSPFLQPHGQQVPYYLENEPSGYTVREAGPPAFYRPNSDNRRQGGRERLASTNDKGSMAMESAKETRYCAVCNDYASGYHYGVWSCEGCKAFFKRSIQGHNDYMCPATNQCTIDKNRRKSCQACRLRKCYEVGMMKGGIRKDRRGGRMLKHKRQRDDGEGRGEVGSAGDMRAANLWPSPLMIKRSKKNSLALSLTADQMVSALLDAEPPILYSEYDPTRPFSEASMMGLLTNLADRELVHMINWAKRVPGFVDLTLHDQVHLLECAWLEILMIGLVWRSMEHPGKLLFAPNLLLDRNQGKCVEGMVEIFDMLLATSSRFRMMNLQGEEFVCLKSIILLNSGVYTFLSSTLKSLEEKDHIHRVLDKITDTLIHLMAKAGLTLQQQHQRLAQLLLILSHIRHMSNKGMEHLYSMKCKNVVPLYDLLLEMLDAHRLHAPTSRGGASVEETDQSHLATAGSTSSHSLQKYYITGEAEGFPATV
# In short: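 Antagonist mode: compounds in DMSO are pinned onto VM7Luc4E2 reporter cells, 0.1 nM final 17beta-estradiol is added, and after 22 h at 37C luciferase luminescence is measured with ONE-Glo.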
# [2] = qHTS assay to identify small molecule antagonists of the sonic hedgehog signaling (Shh) pathway - cell viability counter screen (AID 1259367); note: nearly all actives have a fitted effect of over 55% in size; note: potency is the fitted concentration of half-maximal effect
# In short: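 Tox21 library chemicals were tested on a Gli1-Luc NIH/3T3 clone (2,000 cells/well) stimulated by conditioned medium; viability was quantified as fluorescence from CellTiter-Fluor reagent added at 23 hr.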
# [3] = qHTS assay to identify small molecule antagonists of the sonic hedgehog signaling (Shh) pathway (AID 1259369; calls by dose curve; note: potency is the fitted concentration of half-maximal effect; nearly all actives have a fitted effect of over 45% in size)
# In short: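 Cells are plated and held 4hr at 37 C, compounds (DMSO) are pinned in, conditioned medium is added to stimulate the pathway, and after 24hr luciferase reagent is added for 30min before luminescence is read.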
# [4] = qHTS assay to identify small molecule antagonists of the estrogen receptor beta (ER-beta) signaling pathway - cell viability counter screen (AID 1259382); note: potency is the fitted concentration of half-maximal effect; nearly all actives have a fitted effect of over 55% in size
# In short: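 Cytotoxicity counter screen multiplexed with the beta-lactamase antagonist assay: GripTite HEK293T ER-beta-bla cells were treated 16 hr with test chemicals in the presence of 1nM 17-beta-estradiol, and viability was measured by CellTiter-Glo.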
# [5] = biological target: Estrogen receptor beta (Homo sapiens) (UniProt Q92731); assay: qHTS assay to identify small molecule agonists of the estrogen receptor beta (ER-beta) signaling pathway (AID 1259377; active = well fitted activation curve with a large enough effect in the signal ratio in the repeat runs, not every such curve was filed as active; inconclusive = weak or mixed curves, or effect the other way; the % refers to the signal ratio; note: % is set by controls: 0 for no effect and ±100 for the full control effect); conditions: ER-beta-UAS-bla HEK293T, beta-lactamase FRET ratio, 16 h; activation: at 92.4 µM (top of the series) unless noted
# Chain of UniProt Q92731 (Q92731 whole entry, looked up): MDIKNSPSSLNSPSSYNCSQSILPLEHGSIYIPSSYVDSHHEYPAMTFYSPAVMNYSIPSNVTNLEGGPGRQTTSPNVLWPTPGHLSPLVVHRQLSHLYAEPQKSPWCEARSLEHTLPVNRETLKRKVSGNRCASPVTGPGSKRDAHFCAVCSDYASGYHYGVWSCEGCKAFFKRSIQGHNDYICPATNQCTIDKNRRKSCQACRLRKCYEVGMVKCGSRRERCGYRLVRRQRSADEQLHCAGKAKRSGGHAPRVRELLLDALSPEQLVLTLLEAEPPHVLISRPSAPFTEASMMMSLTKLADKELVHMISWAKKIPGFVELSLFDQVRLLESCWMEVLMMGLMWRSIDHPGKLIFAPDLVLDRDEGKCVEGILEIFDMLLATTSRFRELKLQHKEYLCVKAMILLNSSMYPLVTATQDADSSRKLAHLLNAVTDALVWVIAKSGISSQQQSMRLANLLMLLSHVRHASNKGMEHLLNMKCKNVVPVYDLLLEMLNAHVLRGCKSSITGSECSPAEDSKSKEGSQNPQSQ
# In short: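 Reporter cells (HEK293T, ER-beta-UAS-bla) receive compounds or DMSO after a 6 hr pre-incubation. They then incubate 16 hr at 37C/5% CO2, and fluorescence from LiveBLAzer B/G substrate is measured after 2 hours at room temperature.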
# [6] = biological target: Estrogen receptor beta (Homo sapiens) (UniProt Q92731); assay: qHTS assay to identify small molecule antagonists of the estrogen receptor beta (ER-beta) signaling pathway (AID 1259378; active = well fitted inhibition curve with a large enough effect in the signal ratio in the repeat runs, not every such curve was filed as active; inconclusive = weak or mixed curves, or effect the other way; inactive = no such curve, though single readings can be large or run the other way; the % refers to the signal ratio; note: potency is the fitted concentration of half-maximal effect); conditions: ER-beta-UAS-bla HEK293T, beta-lactamase FRET ratio, 16 h; activity, negative = inhibition: at 92.4 µM (top of the series) unless noted
# In short: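 ER-beta-UAS-bla HEK293T cells in 2% charcoal-stripped FBS medium treated with compound plus 1nM final 17-beta-estradiol for 16 hr at 37C. Beta-lactamase reporter read by FRET substrate fluorescence after 2 hours at room temperature.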
# [7] = qHTS assay to identify small molecule agonists of the androgen receptor (AR) signaling pathway in the presence of an antagonist - cell viability counter screen (AID 1259379); note: potency is the fitted concentration of half-maximal effect; nearly all actives have a fitted effect of over 25% in size
# In short: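 Cytotoxicity is assessed by CellTiter-Fluor in MDA-kb2 cells carrying an MMTV-driven luciferase reporter. Cells receive 3.0uM nilutamide plus compounds at 15 concentrations and incubate 16 hr at 37C without CO2 before fluorescence reading.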
# [8] = qHTS assay to identify small molecule agonists or antagonists of the thyroid stimulating hormone receptor (TSHR) signaling pathway - wild type cell line counter screen (AID 1259384; calls by dose curve; note: % is set by controls: 0 for no effect and ±100 for the full control effect); conditions: HEK293 wild type, cAMP HTRF counter-screen; cAMP activity change: at 92.4 µM (top of the series), stronger effect = higher value unless noted
# In short: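 Wild-type Hek293 cells, 800/well, 18 h at 37C, then compound with Ro20-1724 for 30 min RT. cAMP by HTRF (cAMP-d2/anti-cAMP cryptate), 1 h RT, fluorescence read. 15 concentrations, triplicates.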
# [9] = qHTS assay to identify small molecule agonists of the sonic hedgehog signaling (Shh) pathway - cell viability counter screen (AID 1259366); note: potency is the fitted concentration of half-maximal effect; nearly all actives have a fitted effect of over 50% in size
# In short: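 In quantitative high-throughput format, 3T3 Gli1-Luc cells were exposed to compounds for 24hr and multiplexed for viability using CellTiter-Fluor, incubated 1hr at 37C before the fluorescence read.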
# [10] = qHTS assay to identify small molecule agonists of the estrogen receptor beta (ER-beta) signaling pathway - cell viability counter screen (AID 1259380); note: potency is the fitted concentration of half-maximal effect; nearly all actives have a fitted effect of over 30% in size
# In short: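 Cytotoxicity is measured in parallel with the reporter screen: after 16 hr compound exposure at 37C and a 2 hr LiveBLAzer step, CellTiter-Glo is added to the same ER-beta-UAS-bla HEK293T wells and luminescence read after 30 min.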
# Tags give direction and shape of the fitted curve or compound fluorescence and quenching.
structure (smiles),measurement,setting,value
CCCCC/C=C\C/C=C\CCCCCCCC(=O)O,Potency,[1],inactive
same,Potency,[2],inactive
same,Potency,[3],"inconclusive: 7.57 µM [inhibitor, full curve] and inconclusive: 34.4 µM [inhibitor, partial curve, poor fit]"
same,Potency,[4],"inconclusive: 60.1 µM [cytotoxic, partial curve] and inconclusive: 27.3 µM [cytotoxic, partial curve]"
O=CC=C(c1ccccc1)c1ccccc1,Potency,[1],active: 69.1 µM
same,Potency,[2],"inconclusive: 69.1 µM [cytotoxic, partial curve]"
same,Potency,[3],"inconclusive: 9.77 µM [inhibitor, partial curve, poor fit]"
same,activation,[5],inconclusive: -10.7%
same,Potency,[6],active: 7.76 µM
same,Potency,[7],"inconclusive: 49 µM [cytotoxic, partial curve]"
same,Potency,[4],active: 27.5 µM
same,Potency,[8],inactive
CCCCC/C=C\C/C=C\CCCCCCCC(=O)NC(C)c1ccccc1 (stereo unspecified),Potency,[1],"inconclusive: 23.7 µM [inhibitor, partial curve]"
same,Potency,[9],"inconclusive: 16.8 µM [cytotoxic, partial curve, poor fit]"
same,Potency,[2],"inconclusive: 11.9 µM [cytotoxic, single point]"
same,Potency,[10],"inconclusive: 13.3 µM [cytotoxic, partial curve]"
c1ccc(Cc2ccccc2)cc1,Potency,[1],inactive
C[C@]12CC[C@H]3[C@@H](CCC4=CC(=O)CC[C@@]43C)[C@@H]1CC[C@@H]2C(=O)CO,Potency,[1],"inconclusive: 68.6 µM [inhibitor, single point]"
same,Potency,[9],"inconclusive: 34.4 µM [rising, partial curve]"
same,Potency,[3],active: 15.4 µM
same,Potency,[10],"inconclusive: 9.69 µM [cytotoxic, full curve] and inconclusive: 33.5 µM [cytotoxic, single point]"
